Reference: the supplement of paper PMC3334620
In all, about 33,000 sequences were measured (“E-score (-0.5 to 0.5)”: median about -0.032, highest 2% from about 0.36 on). This is one part of the list.

The sequences below were run against T1, Sko1 (UniProt Q02100) (assay: PBM E-score (8-mer binding enrichment) (E-score (-0.5 to 0.5)); higher = stronger / more preferred TF binding; most listed sequences are background and not binding sites). Conditions: protein concentration: 200 nM; construct: GST-full length.
T1 sequence: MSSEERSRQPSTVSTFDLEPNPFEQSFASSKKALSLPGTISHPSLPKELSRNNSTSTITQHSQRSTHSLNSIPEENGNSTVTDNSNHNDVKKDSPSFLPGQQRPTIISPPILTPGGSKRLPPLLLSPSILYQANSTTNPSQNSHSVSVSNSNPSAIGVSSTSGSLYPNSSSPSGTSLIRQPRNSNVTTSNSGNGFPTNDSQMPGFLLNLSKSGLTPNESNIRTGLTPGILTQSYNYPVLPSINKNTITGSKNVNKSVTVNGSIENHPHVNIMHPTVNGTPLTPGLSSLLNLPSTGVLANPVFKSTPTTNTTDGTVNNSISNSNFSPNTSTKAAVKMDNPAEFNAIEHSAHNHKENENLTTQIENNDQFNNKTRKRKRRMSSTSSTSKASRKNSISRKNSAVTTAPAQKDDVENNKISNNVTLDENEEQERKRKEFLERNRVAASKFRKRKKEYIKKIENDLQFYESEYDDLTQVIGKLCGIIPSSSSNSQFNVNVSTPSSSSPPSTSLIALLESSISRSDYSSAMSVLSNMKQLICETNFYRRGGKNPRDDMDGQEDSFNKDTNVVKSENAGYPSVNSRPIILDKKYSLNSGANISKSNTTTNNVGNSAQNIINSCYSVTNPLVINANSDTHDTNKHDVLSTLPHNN
Procedure, shortened: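 PURExpress in vitro transcription/translation supplied GST-tagged yeast transcription factors, either full-length or DNA-binding domain. Applied at about 100-200 nM to universal all-10-mer Agilent arrays double-stranded by primer extension, the bound protein was detected with fluorescent anti-GST. E-scores, modified Wilcoxon-Mann-Whitney statistics, were given by the Universal PBM Analysis Suite to ungapped eight-base words pooled with their reverse complements after masliner normalisation.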

Row | Sequence | PBM E-score
1 | AATCATAG | 0.126
2 | CAAACGAG | -0.0831
3 | CAGAACAC | -0.0744
4 | TAACTCTA | -0.0475
5 | GCGCTAGA | -0.0443
6 | TCGCTAGA | -0.0802
7 | TGGCTTAA | 0.0689
8 | AAGGTTCA | -0.1
9 | AGCACAGC | -0.134
10 | AAGAGTAT | -0.155
11 | TTGGCCAA | -0.202
12 | AGGCCGAC | -0.257
13 | CAAATCCC | -0.184
14 | CACAAGAC | -0.0429
15 | AACAGGCT | -0.168
16 | CATATCCA | -0.129
17 | CTGTCCGA | -0.0977
18 | ATGGATCA | -0.194
19 | CCTGTGGC | -0.105
20 | AAGCCTGG | -0.189
21 | AGTTTTAA | 0.0928
22 | AGGCTACG | 0.0926
23 | GCGCGAAA | 0.0946
24 | ACCGAACG | 0.0347
25 | GCTCCCTA | -0.3

Row | Sequence | PBM E-score
26 | CCTAAACG | 0.0295
27 | GCTCGGAA | -0.217
28 | GTAAAAAC | 0.184
29 | AGCTGTGG | -0.296
30 | CTGTTTGA | -0.00062
31 | CGCTGTTC | -0.111
32 | GACTTCGC | 0.0748
33 | CCCTAGAC | -0.0592
34 | AGTCCCTG | -0.259
35 | AATGTAGG | -0.175
36 | CTAATCCA | -0.0327
37 | GAACTATC | 0.0113
38 | CAGAACCG | -0.125
39 | TAGCCCAA | -0.0464
40 | CAACAAAC | 0.0578
41 | GTGCACAC | 0.133
42 | ACACTCTG | -0.123
43 | ATAGCGCG | 0.0665
44 | ACTCTGCG | 0.0343
45 | CCGCCACC | -0.154
46 | GCTTCTCC | -0.281
47 | TTCGCCAA | -0.0834
48 | CTGGTACC | -0.37
49 | CGTCAATA | 0.359
50 | ATGCGGAC | 0.0362

Row | Sequence | PBM E-score
51 | ACAGTGAC | 0.223
52 | CATCGGCG | -0.243
53 | ATTTGGCG | 0.0511
54 | AGACTCGA | -0.207
55 | GGTACCAC | -0.142
56 | ATAGTACC | 0.0243
57 | GCATAAGA | 0.00788
58 | CTCTGGAC | -0.0641
59 | CTCGGCTA | -0.123
60 | AATACCAC | 0.0573
61 | ATTGCCAG | -0.0431
62 | AGCACTGC | -0.0788
63 | AAGTCAGC | 0.0973
64 | ACTGTCCT | -0.107
65 | AATTTCGG | -0.0489
66 | AAATTTTG | 0.161
67 | GGCCCTTA | -0.171
68 | GCAACTCA | -0.00054
69 | AGGGTTCC | -0.333
70 | CCGGCGAC | -0.368
71 | ACAATAAC | 0.214
72 | ACAAAAGG | -0.247
73 | CTGAAGCA | 0.0252
74 | CTACCCAG | -0.222
75 | TAGCCTGA | -0.0768

Row | Sequence | PBM E-score
76 | CCGCATCC | -0.189
77 | CACTTAGG | -0.00845
78 | ATTATAGA | 0.189
79 | CTCTTCGC | 0.0109
80 | CAGGGGAG | -0.266
81 | CGGTTACG | 0.291
82 | ACTTGCCA | -0.162
83 | CTCATAGC | -0.107
84 | ATGTGAGG | -0.0702
85 | AGGGGGAT | -0.271
86 | GAATTTTA | 0.128
87 | ACTAGAAC | 0.0484
88 | ATTTATTC | 0.189
89 | GATCGATA | -0.00557
90 | GGTACATA | 0.062
91 | GAAAACGC | 0.102
92 | CCACAGAA | 0.00404
93 | AATCGCAC | 0.069
94 | AACACGAT | 0.128
95 | ATTGGGTA | 0.0853
96 | GTTTATCA | 0.26
97 | ACGAGTTG | 0.124
98 | ACGCGTTA | 0.222
99 | GGAATGCA | 0.0008
100 | AGAGACTG | -0.282

Row | Sequence | PBM E-score
101 | AGTTAGAT | 0.184
102 | ACCGAGCA | 0.00405
103 | ACTCGCCA | -0.052
104 | ATCACCGC | -0.0856
105 | AACCTCGG | -0.146
106 | GGTTAGAC | -0.158
107 | CTTAGAAA | 0.0338
108 | CTCGCCTC | -0.186
109 | CGCGCGGA | 0.00201
110 | CTGGATAC | -0.145
111 | CTGCTCGC | -0.248
112 | ATTCTGCC | -0.2
113 | TAGCAGGA | -0.236
114 | AAGTTCTG | 0.102
115 | CAGAGACC | -0.106
116 | AATAGAAG | -0.035
117 | GGGCGAAA | 0.0756
118 | AACATGAT | 0.172
119 | CACGAACC | 0.011
120 | AAACACAC | 0.167
121 | AAGCGATC | -0.0345
122 | TAATCCTA | 0.0381
123 | ACCTACAT | 0.0291
124 | CGCAAGAG | -0.00497
125 | GGGGCTAC | -0.175

Row | Sequence | PBM E-score
126 | GGATAGAC | 0.046
127 | ACGGTACT | -0.0493
128 | CATCAACG | 0.19
129 | ACATCACT | 0.337
130 | GATAGGAC | -0.241
131 | GGGTTAGA | -0.118
132 | ACGACATG | 0.356
133 | TGGTACCA | -0.355
134 | CAGCAATC | -0.0896
135 | AAAACCCG | -0.0449
136 | CTATTCAC | 0.0572
137 | CAAGAAGA | -0.0303
138 | AAGAGTGT | -0.0657
139 | GCATTACA | 0.111
140 | CAAAAACC | 0.0308
141 | GCTGGGGA | -0.236
142 | CTCGCACA | -0.0527
143 | CTGACAGC | -0.301
144 | CCAAAGTC | -0.0817
145 | CGTTTTGC | 0.177
146 | ATGTGTCC | 0.00598
147 | GGCTGGAA | -0.198
148 | AACTAAGT | 0.0399
149 | GGCCAAGA | -0.212
150 | CGTGAGAG | -0.119

Row | Sequence | PBM E-score
151 | CCCTGCAG | -0.119
152 | CCTTCACG | 0.126
153 | CTCGATGC | -0.229
154 | GGCTACTA | 0.0535
155 | ACGATCAT | 0.15
156 | CATCCCAA | -0.0945
157 | CAGACAGA | -0.0421
158 | GGTACGAC | 0.151
159 | CACTCCGC | -0.261
160 | GCACTCCA | -0.248
161 | ACTTTCAG | -0.00811
162 | GCCGAGAC | -0.218
163 | CATATCTC | 0.133
164 | AAGTACGT | 0.44
165 | CGGGATCA | -0.0763
166 | ATCGCTTG | -0.0875
167 | AGCCCAAT | -0.0554
168 | GTCGGCAC | -0.183
169 | ACGAATGC | 0.231
170 | AGGCAATC | 0.0282
171 | CCTTTGTA | -0.0286
172 | CCACTGGG | -0.0298
